The other results are listed elsewhere or left out. The data describe in vitro nicking of single-stranded DNA by Rep domains (3 µM enzyme, 1 h, 37 °C); shown is the middle of each 90-letter strand. A value is the log2 ratio of uncut reads to the pool without enzyme; the lower, the more was cut; hits are not called. Counts are relative to all reads, so uncut sequences can rise above 0 when many others are cut.
Assays:
Experiment in all cases: uncleaved DNA left, log2 of reads against the no-enzyme library (log2 ratio); higher = less cleavage (more negative = more Rep cleavage of the k-mer); sequences stand for … in CTCGTCCG…ACCGGAGA
[1] = test system: T1, Rep nickase domain of Muscovy duck circovirus
T1 sequence (residues 1-111, tag not shown): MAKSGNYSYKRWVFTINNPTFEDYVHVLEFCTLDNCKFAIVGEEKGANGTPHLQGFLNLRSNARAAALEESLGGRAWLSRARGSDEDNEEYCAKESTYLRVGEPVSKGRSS
Experimental: (§1)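 A pool of 90-nt single-stranded DNAs with seven random bases just before the constant AC of the nick site (name = the seven bases) was cut by 3 µM recombinant His6-SUMO-tagged Rep nickase domain (300 nM DNA, 50 mM HEPES pH 8.0, 50 mM NaCl, 1 mM MnCl2, 1 h, 37 °C, three replicates). Uncut DNA was amplified and sequenced.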

[2] = test system: T2, Rep nickase domain of banana bunchy top virus
T2 sequence (residues 1-94, tag not shown): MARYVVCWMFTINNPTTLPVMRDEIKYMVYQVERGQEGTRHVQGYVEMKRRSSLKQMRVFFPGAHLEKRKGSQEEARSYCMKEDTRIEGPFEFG
Experimental: as §1

[3] = test system: T3, Rep nickase domain of cabbage leaf curl virus
T3 sequence (residues 1-116, tag not shown): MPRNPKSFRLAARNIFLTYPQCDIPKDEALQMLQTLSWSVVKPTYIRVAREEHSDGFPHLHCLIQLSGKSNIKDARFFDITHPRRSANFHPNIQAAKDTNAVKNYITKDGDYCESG
Experimental: as §1

[4] = test system: T4, Rep nickase domain of chickpea chlorotic dwarf virus
T4 sequence (residues 1-124, tag not shown): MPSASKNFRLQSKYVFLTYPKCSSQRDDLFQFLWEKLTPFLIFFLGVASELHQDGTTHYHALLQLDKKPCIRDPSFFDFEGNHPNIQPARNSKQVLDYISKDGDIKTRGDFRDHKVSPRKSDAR
Experimental: as §1

[5] = test system: T5, Rep nickase domain of faba bean necrotic yellows virus
T5 sequence (residues 1-98, tag not shown): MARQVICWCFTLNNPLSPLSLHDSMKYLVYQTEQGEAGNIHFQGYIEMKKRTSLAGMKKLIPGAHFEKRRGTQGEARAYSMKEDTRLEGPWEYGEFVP
Experimental: as §1

[6] = test system: T6, Rep nickase domain of maize striate mosaic virus
T6 sequence (residues 1-117, tag not shown): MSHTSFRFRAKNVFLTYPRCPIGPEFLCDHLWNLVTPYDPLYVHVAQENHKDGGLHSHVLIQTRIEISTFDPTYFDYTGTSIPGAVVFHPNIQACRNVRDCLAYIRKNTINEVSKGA
Experimental: as §1

[7] = test system: T7, Rep nickase domain of porcine circovirus 2
T7 sequence (residues 2-116, tag not shown): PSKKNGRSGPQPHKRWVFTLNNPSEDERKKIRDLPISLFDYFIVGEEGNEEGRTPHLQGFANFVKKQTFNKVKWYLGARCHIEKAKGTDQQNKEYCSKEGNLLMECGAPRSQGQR
Experimental: as §1

[8] = test system: T8, Rep nickase domain of tomato golden mosaic virus
T8 sequence (residues 1-124, tag not shown): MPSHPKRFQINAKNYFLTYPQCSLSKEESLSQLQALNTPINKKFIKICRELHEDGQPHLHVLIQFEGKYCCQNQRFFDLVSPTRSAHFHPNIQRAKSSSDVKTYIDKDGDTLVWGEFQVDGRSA
Experimental: as §1

[9] = test system: T9, Rep nickase domain of tomato yellow leaf curl virus
T9 sequence (residues 1-136, tag not shown): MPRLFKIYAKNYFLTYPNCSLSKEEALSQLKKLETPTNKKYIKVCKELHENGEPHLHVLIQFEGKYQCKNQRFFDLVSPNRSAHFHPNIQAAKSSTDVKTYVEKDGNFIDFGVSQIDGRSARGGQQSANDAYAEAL
Experimental: as §1

[10] = test system: T10, Rep nickase domain of wheat dwarf virus
T10 sequence (residues 1-137, tag not shown): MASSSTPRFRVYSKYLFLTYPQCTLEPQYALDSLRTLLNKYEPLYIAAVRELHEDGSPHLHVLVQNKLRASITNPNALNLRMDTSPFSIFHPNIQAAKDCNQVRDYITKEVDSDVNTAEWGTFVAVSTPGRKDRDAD
Experimental: as §1

Row | Sequence | uncleaved DNA left (log2) [1] | uncleaved DNA left (log2) [2] | uncleaved DNA left (log2) [3] | uncleaved DNA left (log2) [4] | uncleaved DNA left (log2) [5] | uncleaved DNA left (log2) [6] | uncleaved DNA left (log2) [7] | uncleaved DNA left (log2) [8] | uncleaved DNA left (log2) [9] | uncleaved DNA left (log2) [10]
1 | GTTCGTC | -0.0315 | 0.00885 | 0.354 | 0.773 | -0.0168 | 1.25 | 0.0726 | 0.00394 | 0.0153 | 0.0658
2 | AAAGGGT | 0.0575 | 0.0727 | 0.288 | 1.73 | 0.117 | 1.96 | 0.232 | 0.216 | 0.00488 | 0.0638
3 | AATAGCT | 0.0641 | -0.0503 | -0.502 | -1.21 | 0.103 | -0.91 | -0.566 | 0.0256 | 0.0348 | 0.00147
4 | TTTGTCA | 0.0738 | 0.094 | 0.271 | -0.0553 | 0.0588 | -0.186 | -0.0382 | -0.0452 | 0.195 | 0.1
5 | AAGCCTA | 0.0756 | -0.0346 | -0.0262 | -1.56 | 0.00636 | 0.124 | -0.43 | 0.0271 | -0.0705 | -0.029
6 | CGAGCCA | 0.0278 | 0.0411 | 0.112 | -0.15 | 0.129 | 0.305 | -0.897 | 0.0575 | -0.0526 | -0.00564
7 | CCTTCTA | -0.16 | -0.126 | -0.0451 | -1.44 | 0.00879 | -0.764 | -0.3 | 0.0136 | -0.14 | -0.124
8 | GATCGAC | -0.0629 | -0.0941 | 0.0345 | 0.546 | -0.0509 | 0.579 | -0.0207 | -0.0769 | -0.101 | 0.0055
9 | GTTTGAA | -0.00987 | 0.106 | 0.325 | 0.885 | 0.11 | 1.62 | 0.105 | 0.0799 | 0.0768 | 0.0914
10 | CAGCTAC | 0.0335 | 0.0753 | 0.00159 | -1.64 | 0.217 | -0.201 | 0.102 | 0.13 | 0.12 | 0.15
11 | CAAACAT | 0.0617 | 0.196 | -0.286 | -1.51 | 0.121 | 0.199 | 0.0254 | -0.000721 | 0.112 | 0.0767
12 | ATTATTA | -0.0849 | -0.189 | -0.0767 | -1.23 | -0.038 | -0.67 | -0.109 | 0.0165 | 0.0397 | 0.0639
13 | GTTTAGA | -0.0121 | -0.0409 | 0.254 | 0.788 | 0.0298 | 1.52 | 0.132 | 0.0322 | 0.0364 | 0.0112
14 | ACATGTA | -0.0666 | -0.0357 | -0.334 | -1.09 | -0.0895 | -0.856 | -0.0817 | 0.0962 | -0.0529 | -0.0363
15 | CGCTATT | -2.74 | -1.4 | -0.825 | -2.23 | -0.332 | -0.763 | -3.11 | -0.17 | -0.161 | -0.557

— the supplement of paper PMC7826260
